No constants are given. Whether binding was seen depends on the method and setting. Binding seen in cells or lysates may run through a third protein. Some binding calls cover weakened binding; strength is not graded here. Each block holds one molecule with its values, some of them ahead of it.
Columns and labels:
[1] = molecular target: T1, CD82 (Tspan-27) (human (endogenous in A2780, OVCAR-3, SKOV-3 and A2780cis cells)) (UniProt P27701); test: condition: only cells treated with 50 μM 2-BP (palmitoylation inhibitor); co-IP; SKOV-3 cells treated with the palmitoylation inhibitor 2-BP (50 μM, 20 h, 37 °C), RIPA buffer; anti-CD82 or anti-claudin-7 precipitates
T1 sequence: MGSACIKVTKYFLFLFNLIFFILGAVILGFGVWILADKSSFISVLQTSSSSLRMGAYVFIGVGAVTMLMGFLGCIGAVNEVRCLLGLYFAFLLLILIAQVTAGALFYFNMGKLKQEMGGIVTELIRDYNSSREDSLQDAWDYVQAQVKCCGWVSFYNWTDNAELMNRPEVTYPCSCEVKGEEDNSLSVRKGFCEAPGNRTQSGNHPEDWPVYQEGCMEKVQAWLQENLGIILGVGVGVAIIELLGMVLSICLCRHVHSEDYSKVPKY

[2] = molecular target: T2, claudin-7 (human (endogenous in A2780, OVCAR-3, SKOV-3 and A2780cis cells)) (UniProt O95471); test: as above
T2 sequence: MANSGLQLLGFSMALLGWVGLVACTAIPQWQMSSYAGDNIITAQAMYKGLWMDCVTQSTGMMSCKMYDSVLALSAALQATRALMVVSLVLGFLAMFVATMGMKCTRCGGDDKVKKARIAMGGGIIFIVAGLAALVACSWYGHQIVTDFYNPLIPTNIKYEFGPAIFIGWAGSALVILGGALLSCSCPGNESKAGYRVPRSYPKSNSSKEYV

[3] = molecular target: T2, claudin-7 (human (endogenous in A2780, OVCAR-3, SKOV-3 and A2780cis cells)); test: condition: only cells treated with 50 μM 2-BP (palmitoylation inhibitor); co-IP; A2780 cells treated with the palmitoylation inhibitor 2-BP (50 μM, 20 h, 37 °C), RIPA buffer; anti-CD82 or anti-claudin-7 precipitates
[4] = molecular target: T1, CD82 (Tspan-27) (human (endogenous in A2780, OVCAR-3, SKOV-3 and A2780cis cells)); test: condition: only cells treated with 50 μM 2-BP (palmitoylation inhibitor); co-IP; OVCAR-3 cells treated with the palmitoylation inhibitor 2-BP (50 μM, 20 h, 37 °C), RIPA buffer; anti-CD82 or anti-claudin-7 precipitates
[5] = molecular target: T2, claudin-7 (human (endogenous in A2780, OVCAR-3, SKOV-3 and A2780cis cells)); test: as above
[6] = molecular target: claudin-4 (human (endogenous in A2780, OVCAR-3, SKOV-3 and A2780cis cells)) (UniProt O14493); test: co-IP; SKOV-3 cells lysed in 1% Triton X-100 buffer; lysates precipitated with antibodies to the studied molecules, western blot
[7] = molecular target: claudin-4 (human (endogenous in A2780, OVCAR-3, SKOV-3 and A2780cis cells)) (UniProt O14493); test: co-IP; OVCAR-3 cells lysed in 1% Triton X-100 buffer; lysates precipitated with antibodies to the studied molecules, western blot
[8] = molecular target: T3, Epithelial cell adhesion molecule (EpCAM) (human (endogenous in A2780, OVCAR-3, SKOV-3 and A2780cis cells)) (UniProt P16422); test: as above
T3 sequence: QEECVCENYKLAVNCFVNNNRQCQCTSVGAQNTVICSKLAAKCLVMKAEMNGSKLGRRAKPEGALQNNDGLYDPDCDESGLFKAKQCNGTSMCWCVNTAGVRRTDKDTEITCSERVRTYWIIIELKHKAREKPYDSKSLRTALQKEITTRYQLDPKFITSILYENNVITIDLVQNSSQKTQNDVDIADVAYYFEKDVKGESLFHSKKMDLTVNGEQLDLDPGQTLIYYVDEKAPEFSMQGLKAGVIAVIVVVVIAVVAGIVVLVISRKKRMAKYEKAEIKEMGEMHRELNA

[9] = molecular target: T1, CD82 (Tspan-27) (human (endogenous in A2780, OVCAR-3, SKOV-3 and A2780cis cells)); test: condition: only lysed in RIPA buffer after DTSSP treatment; cross-linking + co-IP; A2780 cells treated with the membrane-impermeable cross-linker DTSSP (1 mM, 30 min, 37 °C), lysed in RIPA buffer; anti-CD82 or anti-claudin-7 precipitates
[10] = molecular target: T2, claudin-7 (human (endogenous in A2780, OVCAR-3, SKOV-3 and A2780cis cells)); test: co-IP; A2780 cells lysed in 1% Triton X-100 buffer; lysates precipitated with antibodies to the studied molecules, western blot
[11] = molecular target: T4, claudin-4 (human (endogenous in A2780, OVCAR-3, SKOV-3 and A2780cis cells)), O14493; test: co-IP; SKOV-3 cells lysed in 1% Triton X-100 buffer; lysates precipitated with antibodies to the studied molecules, western blot; conditions: remark: other sources report otherwise
T4 chain: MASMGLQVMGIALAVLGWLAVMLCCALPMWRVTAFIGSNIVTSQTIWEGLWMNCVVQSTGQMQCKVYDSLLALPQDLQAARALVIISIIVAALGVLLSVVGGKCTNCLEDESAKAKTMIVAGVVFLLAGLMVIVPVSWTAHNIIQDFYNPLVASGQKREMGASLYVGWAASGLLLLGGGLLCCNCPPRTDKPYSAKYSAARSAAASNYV

[12] = molecular target: T5, claudin-1 (human (endogenous in A2780, OVCAR-3 and SKOV-3 cells)), O95832; test: as above; conditions: remark: other sources report otherwise
T5 chain: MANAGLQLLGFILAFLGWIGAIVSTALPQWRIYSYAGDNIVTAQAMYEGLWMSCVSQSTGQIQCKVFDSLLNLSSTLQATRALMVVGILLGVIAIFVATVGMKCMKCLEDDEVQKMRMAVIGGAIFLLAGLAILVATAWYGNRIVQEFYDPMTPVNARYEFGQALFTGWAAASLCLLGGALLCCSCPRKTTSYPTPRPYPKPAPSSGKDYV

[13] = molecular target: T4, claudin-4 (human (endogenous in A2780, …)); test: co-IP; OVCAR-3 cells lysed in 1% Triton X-100 buffer; lysates precipitated with antibodies to the studied molecules, western blot; conditions: remark: other sources report otherwise
[14] = molecular target: T5, claudin-1 (human (endogenous in A2780, …)); test: as above; conditions: remark: other sources report otherwise
[15] = molecular target: T4, claudin-4 (human (endogenous in A2780, …)); test: co-IP; A2780 cells lysed in 1% Triton X-100 buffer; lysates precipitated with antibodies to the studied molecules, western blot; conditions: remark: other sources report otherwise
[16] = molecular target: T6, claudin-7 (human (endogenous in A2780, OVCAR-3, SKOV-3 and A2780cis cells)), O95471; test: cross-linking + co-IP; SKOV-3 cells treated with DSP or DTSSP (1 mM, 30 min, 37 °C), claudin-7 precipitates also after 2-BP beforehand, lysed in RIPA buffer; anti-CD82 or anti-claudin-7 precipitates; conditions: remark: other sources report otherwise
T6 chain: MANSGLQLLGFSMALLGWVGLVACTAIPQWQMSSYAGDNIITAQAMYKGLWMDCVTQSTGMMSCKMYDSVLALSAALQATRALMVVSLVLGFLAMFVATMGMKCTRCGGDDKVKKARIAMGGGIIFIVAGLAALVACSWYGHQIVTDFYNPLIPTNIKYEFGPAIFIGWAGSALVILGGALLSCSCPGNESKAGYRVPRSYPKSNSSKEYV

[17] = molecular target: T7, CD82 (Tspan-27) (human (endogenous in A2780, OVCAR-3, SKOV-3 and A2780cis cells)), P27701; test: as above; conditions: remark: other sources report otherwise
T7 chain: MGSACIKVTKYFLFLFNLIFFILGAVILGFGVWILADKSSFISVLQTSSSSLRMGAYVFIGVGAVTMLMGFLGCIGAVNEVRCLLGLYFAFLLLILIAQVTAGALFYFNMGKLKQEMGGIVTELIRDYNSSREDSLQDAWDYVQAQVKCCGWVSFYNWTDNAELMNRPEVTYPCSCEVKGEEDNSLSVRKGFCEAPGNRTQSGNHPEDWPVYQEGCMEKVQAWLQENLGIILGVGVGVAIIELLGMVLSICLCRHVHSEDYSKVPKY

[18] = molecular target: T6, claudin-7 (human (endogenous in A2780, …)); test: co-IP; SKOV-3 cells lysed in 1% Triton X-100 buffer; lysates precipitated with antibodies to the studied molecules, western blot; conditions: remark: other sources report otherwise
[19] = molecular target: T7, CD82 (Tspan-27) (human (endogenous in …)); test: as above; conditions: remark: other sources report otherwise
[20] = molecular target: T7, CD82 (Tspan-27) (human (endogenous in …)); test: co-IP; OVCAR-3 cells lysed in 1% Triton X-100 buffer; lysates precipitated with antibodies to the studied molecules, western blot; conditions: remark: other sources report otherwise
[21] = molecular target: T6, claudin-7 (human (endogenous in A2780, …)); test: cross-linking + co-IP; A2780 cells treated with the membrane-impermeable cross-linker DTSSP (1 mM, 30 min, 37 °C), lysed in RIPA buffer; anti-CD82 or anti-claudin-7 precipitates; conditions: remark: other sources report otherwise
[22] = molecular target: T6, claudin-7 (human (endogenous in A2780, …)); test: cross-linking + co-IP; A2780 cells treated first with 2-BP and then with DSP or DTSSP; anti-CD82 or anti-claudin-7 precipitates; conditions: remark: other sources report otherwise
[23] = molecular target: T7, CD82 (Tspan-27) (human (endogenous in …)); test: as above; conditions: remark: other sources report otherwise
[24] = molecular target: T6, claudin-7 (human (endogenous in A2780, …)); test: cross-linking + co-IP; A2780 cells treated with the membrane-permeable cross-linker DSP (1 mM, 30 min, 37 °C), lysed in RIPA buffer; anti-CD82 or anti-claudin-7 precipitates; conditions: remark: other sources report otherwise
[25] = molecular target: T7, CD82 (Tspan-27) (human (endogenous in …)); test: as above; conditions: remark: other sources report otherwise
[26] = molecular target: T7, CD82 (Tspan-27) (human (endogenous in …)); test: co-IP; A2780 cells lysed in 1% Triton X-100 buffer; lysates precipitated with antibodies to the studied molecules, western blot; conditions: remark: other sources report otherwise
[27] = molecular target: T6, claudin-7 (human (endogenous in A2780, …)); test: cross-linking + co-IP; OVCAR-3 cells treated with DSP or DTSSP (1 mM, 30 min, 37 °C), with or without 2-BP beforehand, lysed in RIPA buffer; anti-CD82 or anti-claudin-7 precipitates; conditions: remark: other sources report otherwise
[28] = molecular target: T7, CD82 (Tspan-27) (human (endogenous in …)); test: as above; conditions: remark: other sources report otherwise

- binding [1]: no binding
- binding [2]: no binding
- binding [3]: no binding
- binding [4]: no binding
- binding [5]: no binding
- binding [6]: binds
- binding [7]: binds weakly
- binding [8]: binds
- binding [9]: no binding
- binding [10]: binds weakly
Molecule: claudin-1 (from UniProt O95832 1-211)

- binding [11]: binds
- binding [12]: binds
- binding [13]: binds
- binding [14]: binds
- binding [15]: binds
B1: claudin-7, O95471 1-211 (protein)
chain: MANSGLQLLGFSMALLGWVGLVACTAIPQWQMSSYAGDNIITAQAMYKGLWMDCVTQSTGMMSCKMYDSVLALSAALQATRALMVVSLVLGFLAMFVATMGMKCTRCGGDDKVKKARIAMGGGIIFIVAGLAALVACSWYGHQIVTDFYNPLIPTNIKYEFGPAIFIGWAGSALVILGGALLSCSCPGNESKAGYRVPRSYPKSNSSKEYV

- binding [16]: binds
- binding [17]: binds
- binding [18]: binds
- binding [19]: binds
- binding [20]: binds
- binding [21]: binds
- binding [22]: binds
- binding [23]: binds
- binding [24]: binds
- binding [25]: binds
- binding [26]: binds
- binding [27]: binds
- binding [28]: binds
B2: claudin-1, O95832 1-211 (protein)
chain: MANAGLQLLGFILAFLGWIGAIVSTALPQWRIYSYAGDNIVTAQAMYEGLWMSCVSQSTGQIQCKVFDSLLNLSSTLQATRALMVVGILLGVIAIFVATVGMKCMKCLEDDEVQKMRMAVIGGAIFLLAGLAILVATAWYGNRIVQEFYDPMTPVNARYEFGQALFTGWAAASLCLLGGALLCCSCPRKTTSYPTPRPYPKPAPSSGKDYV

— publication PMC7757826
